# Laboratory results reported in the supplement of paper PMC12423691.
# The list shows a part of the results. Binding of human transcription factors and regulators to the viral nucleoprotein by AlphaScreen, crude cell-free proteins, amounts not normalised, one pass. Fold of the Venus control; higher = more signal. No active / inactive call. Single-pass screen; sequences are the whole Swiss-Prot entries looked up by name.
# B1: SIX4, Q9UIU6 (protein)
# chain: MSSSSPTGQIASAADIKQENGMESASEGQEAHREVAGGAAVGLSPPAPAPFPLEPGDAATAAARVSGEEGAVAAAAAGAAADQVQLHSELLGRHHHAAAAAAQTPLAFSPDHVACVCEALQQGGNLDRLARFLWSLPQSDLLRGNESLLKARALVAFHQGIYPELYSILESHSFESANHPLLQQLWYKARYTEAERARGRPLGAVDKYRLRRKFPLPRTIWDGEETVYCFKEKSRNALKELYKQNRYPSPAEKRHLAKITGLSLTQVSNWFKNRRQRDRNPSETQSKSESDGNPSTEDESSKGHEDLSPHPLSSSSDGITNLSLSSHMEPVYMQQIGNAKISLSSSGVLLNGSLVPASTSPVFLNGNSFIQGPSGVILNGLNVGNTQAVALNPPKMSSNIVSNGISMTDILGSTSQDVKEFKVLQSSANSATTTSYSPSVPVSFPGLIPSTEVKREGIQTVASQDGGSVVTFTTPVQINQYGIVQIPNSGANSQFLNGSIGFSPLQLPPVSVAASQGNISVSSSTSDGSTFTSESTTVQQGKVFLSSLAPSAVVYTVPNTGQTIGSVKQEGLERSLVFSQLMPVNQNAQVNANLSSENISGSGLHPLASSLVNVSPTHNFSLSPSTLLNPTELNRDIADSQPMSAPVASKSTVTSVSNTNYATLQNCSLITGQDLLSVPMTQAALGEIVPTAEDQVGHPSPAVHQDFVQEHRLVLQSVANMKENFLSNSESKATSSLMMLDSKSKYVLDGMVDTVCEDLETDKKELAKLQTVQLDEDMQDL
# B2: IKZF4, Q9H2S9 (protein)
# chain: MHTPPALPRRFQGGGRVRTPGSHRQGKDNLERDPSGGCVPDFLPQAQDSNHFIMESLFCESSGDSSLEKEFLGAPVGPSVSTPNSQHSSPSRSLSANSIKVEMYSDEESSRLLGPDERLLEKDDSVIVEDSLSEPLGYCDGSGPEPHSPGGIRLPNGKLKCDVCGMVCIGPNVLMVHKRSHTGERPFHCNQCGASFTQKGNLLRHIKLHSGEKPFKCPFCNYACRRRDALTGHLRTHSVSSPTVGKPYKCNYCGRSYKQQSTLEEHKERCHNYLQSLSTEAQALAGQPGDEIRDLEMVPDSMLHSSSERPTFIDRLANSLTKRKRSTPQKFVGEKQMRFSLSDLPYDVNSGGYEKDVELVAHHSLEPGFGSSLAFVGAEHLRPLRLPPTNCISELTPVISSVYTQMQPLPGRLELPGSREAGEGPEDLADGGPLLYRPRGPLTDPGASPSNGCQDSTDTESNHEDRVAGVVSLPQGPPPQPPPTIVVGRHSPAYAKEDPKPQEGLLRGTPGPSKEVLRVVGESGEPVKAFKCEHCRILFLDHVMFTIHMGCHGFRDPFECNICGYHSQDRYEFSSHIVRGEHKVG
# B3: NKX2-2, O95096 (protein)
# chain: MSLTNTKTGFSVKDILDLPDTNDEEGSVAEGPEEENEGPEPAKRAGPLGQGALDAVQSLPLKNPFYDSSDNPYTRWLASTEGLQYSLHGLAAGAPPQDSSSKSPEPSADESPDNDKETPGGGGDAGKKRKRRVLFSKAQTYELERRFRQQRYLSAPEREHLASLIRLTPTQVKIWFQNHRYKMKRARAEKGMEVTPLPSPRRVAVPVLVRDGKPCHALKAQDLAAATFQAGIPFSAYSAQSLQHMQYNAQYSSASTPQYPTAHPLVQAQQWTW
# B4: NFKBIA, P25963 (protein)
# chain: MFQAAERPQEWAMEGPRDGLKKERLLDDRHDSGLDSMKDEEYEQMVKELQEIRLEPQEVPRGSEPWKQQLTEDGDSFLHLAIIHEEKALTMEVIRQVKGDLAFLNFQNNLQQTPLHLAVITNQPEIAEALLGAGCDPELRDFRGNTPLHLACEQGCLASVGVLTQSCTTPHLHSILKATNYNGHTCLHLASIHGYLGIVELLVSLGADVNAQEPCNGRTALHLAVDLQNPDLVSLLLKCGADVNRVTYQGYSPYQLTWGRPSTRIQQQLGQLTLENLQMLPESEDEESYDTESEFTEFTEDELPYDDCVFGGQRLTL
# B5: NACC2, Q96BF6 (protein)
# chain: MSQMLHIEIPNFGNTVLGCLNEQRLLGLYCDVSIVVKGQAFKAHRAVLAASSLYFRDLFSGNSKSAFELPGSVPPACFQQILSFCYTGRLTMTASEQLVVMYTAGFLQIQHIVERGTDLMFKVSSPHCDSQTAVIEDAGSEPQSPCNQLQPAAAAAAPYVVSPSVPIPLLTRVKHEAMELPPAGPGLAPKRPLETGPRDGVAVAAGAAVAAGTAPLKLPRVSYYGVPSLATLIPGIQQMPYPQGERTSPGASSLPTTDSPTSYHNEEDEEDDEAYDTMVEEQYGQMYIKASGSYAVQEKPEPVPLESRSCVLIRRDLVALPASLISQIGYRCHPKLYSEGDPGEKLELVAGSGVYITRGQLMNCHLCAGVKHKVLLRRLLATFFDRNTLANSCGTGIRSSTSDPSRKPLDSRVLNAVKLYCQNFAPSFKESEMNVIAADMCTNARRVRKRWLPKIKSMLPEGVEMYRTVMGSAAASVPLDPEFPPAAAQVFEQRIYAERRGDAATIVALRTDAVNVDLSAAANPAFDAGEEVDGAGSVIQEVAAPEPLPADGQSPPQPFEQGGGGPSRPQTPAAAARRPEGTYAGTL
# B6: FOXD4L3, Q6VB84 (protein)
# chain: MNLPRAERLRSTPQRSLRDSDGEDGKIDVLGEEEDEDEVEDEEEAASQQFLEQSLQPGLQVARWGGVALPREHIEGGGGPSDPSEFGTKFRAPPRSAAASEDARQPAKPPYSYIALITMAILQNPHKRLTLSGICAFISGRFPYYRRKFPAWQNSIRHNLSLNDCFVKIPREPGHPGKGNYWSLDPASQDMFDNGSFLRRRKRFKRHQLTPGAHLPHPFPLPAAHAALHNPRPGPLLGAPAPPQPVPGAYPNTAPGRRPYALLHPHPLRYLLLSAPVYAGAPKKAEGAALATPAPFPCCSPHLVLSLGRRARVWRRHREADASLSALRVLCKGSGERVQGLRRICPRPRGATATCSSDHQACCIPRPLPLCCKCPPPPLLGQFCSNSSSIRRRTAPTAALPPRARCWAGTCRPRRPC
# B7: MID2, Q9UJV3 (protein)
# chain: MGESPASVVLNASGGLFSLKMETLESELTCPICLELFEDPLLLPCAHSLCFSCAHRILVSSCSSGESIEPITAFQCPTCRYVISLNHRGLDGLKRNVTLQNIIDRFQKASVSGPNSPSESRRERTYRPTTAMSSERIACQFCEQDPPRDAVKTCITCEVSYCDRCLRATHPNKKPFTSHRLVEPVPDTHLRGITCLDHENEKVNMYCVSDDQLICALCKLVGRHRDHQVASLNDRFEKLKQTLEMNLTNLVKRNSELENQMAKLIQICQQVEVNTAMHEAKLMEECDELVEIIQQRKQMIAVKIKETKVMKLRKLAQQVANCRQCLERSTVLINQAEHILKENDQARFLQSAKNIAERVAMATASSQVLIPDINFNDAFENFALDFSREKKLLEGLDYLTAPNPPSIREELCTASHDTITVHWISDDEFSISSYELQYTIFTGQANFISKSWCSWGLWPEIRKCKEAVSCSRLAGAPRGLYNSVDSWMIVPNIKQNHYTVHGLQSGTRYIFIVKAINQAGSRNSEPTRLKTNSQPFKLDPKMTHKKLKISNDGLQMEKDESSLKKSHTPERFSGTGCYGAAGNIFIDSGCHYWEVVMGSSTWYAIGIAYKSAPKNEWIGKNASSWVFSRCNSNFVVRHNNKEMLVDVPPHLKRLGVLLDYDNNMLSFYDPANSLHLHTFDVTFILPVCPTFTIWNKSLMILSGLPAPDFIDYPERQECNCRPQESPYVSGMKTCH
# B8: GPBP1, Q86WP2 (protein)
# chain: MAQHDFAPAWLNFPTPPSSTKSSLNFEKHSENFAWTENRYDVNRRRHNSSDGFDSAIGRPNGGNFGRKEKNGWRTHGRNGTENINHRGGYHGGSSRSRSSIFHAGKSQGLHENNIPDNETGRKEDKRERKQFEAEDFPSLNPEYEREPNHNKSLAAGVWEYPPNPKSRAPRMLVIKKGNTKDLQLSGFPVVGNLPSQPVKNGTGPSVYKGLVPKPAAPPTKPTQWKSQTKENKVGTSFPHESTFGVGNFNAFKSTAKNFSPSTNSVKECNRSNSSSPVDKLNQQPRLTKLTRMRTDKKSEFLKALKRDRVEEEHEDESRAGSEKDDDSFNLHNSNSTHQERDINRNFDENEIPQENGNASVISQQIIRSSTFPQTDVLSSSLEAEHRLLKEMGWQEDSENDETCAPLTEDEMREFQVISEQLQKNGLRKNGILKNGLICDFKFGPWKNSTFKPTTENDDTETSSSDTSDDDDV
# B9: PRDX3, P30048 (protein)
# chain: MAAAVGRLLRASVARHVSAIPWGISATAALRPAACGRTSLTNLLCSGSSQAKLFSTSSSCHAPAVTQHAPYFKGTAVVNGEFKDLSLDDFKGKYLVLFFYPLDFTFVCPTEIVAFSDKANEFHDVNCEVVAVSVDSHFSHLAWINTPRKNGGLGHMNIALLSDLTKQISRDYGVLLEGSGLALRGLFIIDPNGVIKHLSVNDLPVGRSVEETLRLVKAFQYVETHGEVCPANWTPDSPTIKPSPAASKEYFQKVNQ
# B10: TBX20, Q9UMR3 (protein)
# chain: MEFTASPKPQLSSRANAFSIAALMSSGGSKEKEATENTIKPLEQFVEKSSCAQPLGELTSLDAHGEFGGGSGSSPSSSSLCTEPLIPTTPIIPSEEMAKIACSLETKELWDKFHELGTEMIITKSGRRMFPTIRVSFSGVDPEAKYIVLMDIVPVDNKRYRYAYHRSSWLVAGKADPPLPARLYVHPDSPFTGEQLLKQMVSFEKVKLTNNELDQHGHIILNSMHKYQPRVHIIKKKDHTASLLNLKSEEFRTFIFPETVFTAVTAYQNQLITKLKIDSNPFAKGFRDSSRLTDIERESVESLIQKHSYARSPIRTYGGEEDVLGDESQTTPNRGSAFTTSDNLSLSSWVSSSSSFPGFQHPQSLTALGTSTASIATPIPHPIQGSLPPYSRLGMPLTPSAIASSMQGSGPTFPSFHMPRYHHYFQQGPYAAIQGLRHSSAVMTPFV
# Target: nucleoprotein N of Crimean-Congo hemorrhagic fever virus
# Test: AlphaScreen luminescence signal relative to Venus negative control (fold); higher = stronger binding to CCHFV N
# Method: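 AlphaScreen binding of cell-free made, FLAG-GST-tagged human transcription factors and regulators (crude translation products) to biotinylated N protein; signal as fold of the FLAG-GST-Venus control. One pass.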
row,Binder,AlphaScreen luminescence signal
1,B1,1.91
2,B2,1.77
3,B3,2.42
4,B4,4.05
5,B5,2.05
6,B6,1.67
7,B7,2.28
8,B8,18.1
9,B9,1.49
10,B10,2.7
